Results as given in PubChem BioAssay AID686978 (National Center for Advancing Translational Sciences (NCATS), 2013).
Several values for one entry are separate records, joined by “and”; a condition that tells them apart may be missing. Identical values can stand only once. Hit rate of the full screen: of about 420,000 compounds, about 64,000 (15%) were called active. Inconclusive means that the source gave no clear call. Such entries were picked first, then a sample of the others. Calls come from the whole dose curve; as a rule, active = well fitted inhibition curve with a large enough effect; inconclusive = small, poorly fitted or top-dose-only effect; inactive = flat fitted curve, though single readings scatter. Potencies beside an inconclusive call are fits to weak or partial responses and may not hold up.

test: qHTS for Inhibitors of human tyrosyl-DNA phosphodiesterase 1 (TDP1): qHTS in cells in absence of CPT; conditions: DT40 Tdp1-/- hTDP1 cells, no CPT, ATP luminescence, 48 h; activity change, negative = growth inhibition: at 46.2 µM (top of the series) unless noted; note: nearly all actives have a fitted effect of over 55% in size
Procedure, shortened: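 Camptothecin absent (DMSO only). Human TDP1-complemented DT40 knockout cells, 400 cells/well, 37 °C for minimum 48 hr; ATP measured via CellTiter-Glo, 30 min dark incubation, luminescence.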
% is set by controls: 0 for no effect and ±100 for the full control effect; potency is the fitted concentration of half-maximal effect; tags give direction and shape of the fitted curve.

Row | Structure (SMILES) | Potency | activity change, negative = growth inhibition
1 | CCc1nc2ccc(C(=O)NCCc3ccccn3)cn2c1N(C)Cc1cccs1 | active: 18.4 µM | 
2 | C#CCOCCOCCOCCNc1nc(N2CCOCC2)nc(N2CCN(C(=O)CCCCCCCCCCNC(=O)[C@@H]([C@H](C)CC)n3cc(CCCCCN)nn3)CC2)n1 | inconclusive: 29.1 µM [inhibitor, single point] | 
3 | CC1CCN(c2csc3ccc(F)cc3c2=O)CC1 |  | inconclusive: -21.2% [inhibitor]
4 | Cc1ccc(NS(=O)(=O)c2cccc(C(=O)NCC(c3ccco3)N3CCCCC3)c2)cc1 (configuration not stated) | inconclusive: 18.4 µM [inhibitor, single point] | 
5 | COc1ccccc1C=NC(CO)C(O)c1ccc([N+](=O)[O-])cc1 (configuration not stated) | inactive | 
6 | CC(=O)c1ccc(N2CCN(C(=O)CCNC(=O)Cn3ccc4ccccc4c3=O)CC2)cc1 | inconclusive: 18.4 µM [inhibitor, single point] | 
7 | COc1ccc(OCc2cc(C(=O)NCC3CCOCC3)no2)c(Cl)c1 | inactive | 
8 | COc1cccc2cc(C(=O)N3CCCc4ccccc43)oc12 | inconclusive: 29.1 µM [inhibitor, single point] | 
9 | COCCOC(=O)C1=C(C)N(Cc2ccccc2)C(=O)NC1c1ccc(OC)cc1 (configuration not stated) | inconclusive: 20.6 µM [inhibitor, single point] | 
10 | CCn1nc(C(=O)Nc2ccc(Cl)c(S(=O)(=O)N3CCOCC3)c2)c2ccccc2c1=O | active: 16.4 µM | 
11 | CCOC(=O)N1CCC(Nc2ncnc3c2cnn3-c2ccccc2)CC1 | active: 11.2 µM | 
12 | O=C(C=Cc1ccccc1)Nc1ccccc1 | inactive | 
13 | Cc1ccc(S(=O)(=O)N2CCCC2c2nc3ccccc3s2)cc1 (configuration not stated) | inconclusive: 29.1 µM [inhibitor, single point] | 
14 | CCCCN=Cc1c(C)[nH]n(-c2ccccc2)c1=S | inconclusive: 4.61 µM [inhibitor, partial curve, poor fit] | 
15 | CN(CC(=O)Nc1ccc(S(=O)(=O)N2CCCC2)cc1)Cc1ccc(Cl)cc1Cl | inconclusive: 25.9 µM [inhibitor, single point] | 
16 | CCOc1c(S(=O)(=O)NC2CC(C)(C)NC(C)(C)C2)ccc(Cl)c1Cl | inconclusive: 20.6 µM [inhibitor, single point] | 
17 | CCOC(=O)N/N=C/c1ccc(Oc2ccccc2)cc1 | inconclusive: 25.9 µM [inhibitor, single point] | 
18 | O=C(c1ccc(F)c(F)c1)N1CCOc2ccc(CN3CCN(Cc4ccccn4)CC3)cc2C1 | inactive | 
19 | NC(c1ccccc1)c1csc(Nc2ccc(C(F)(F)F)cn2)n1 (configuration not stated) | active: 13 µM | 
20 | O=C(NC1CCCCC1)C(c1cccnc1)N(C(=O)CCl)c1ccc(F)cc1 (configuration not stated) | active: 0.58 µM | 
21 | CC(C)c1ccc2c(c1)[C@H]1OCC[C@H]1[C@@H](c1cccs1)N2 | active: 10.3 µM | 
22 | CC(C)N1CCc2c(sc(NC(=O)c3ccc(S(=O)(=O)N(C)C4CCCCC4)cc3)c2C(N)=O)C1 | active: 18.4 µM | 
23 | CC(=O)Oc1ccc(C(=O)Nc2ccc3c(c2)OCCO3)cc1 | active: 13 µM | 
24 | Cc1sc(NC(=O)c2ccco2)c(CN2CCCCC2)c1C | inconclusive: 20.6 µM [inhibitor, single point] | 

Row | Structure (SMILES) | Potency | activity change, negative = growth inhibition
25 | Cn1nc(-c2ccccc2F)c2cc(C(=O)N3CCN(C(=O)c4ccco4)CC3)sc21 | inconclusive: 29.1 µM [inhibitor, single point] | 
26 | COc1ccc(-c2cc(=O)c3c(OC)c(OC)c(OC)c(OC)c3o2)cc1 | active: 14.6 µM and active: 16.4 µM | 
27 | O=C(O)/C(=C\c1cccc(O)c1)c1ccc(S(=O)(=O)N2CCCC2)s1 | inconclusive: 32.6 µM [inhibitor, single point] | 
28 | Fc1ccc(CNC(=S)Nc2ccc(OC(F)F)cc2)cc1 | inconclusive: 20.6 µM [inhibitor, single point] | 
29 | O=C(NCCCc1ccccc1)Nc1ccccc1 | inactive | 
30 | COc1cc2nc(NC3CCN(C)CC3)nc(NC3CCN(C)CC3)c2cc1OC | inconclusive: 25.1 µM [inhibitor, single point] | 
31 | CC(=O)c1ccc(NC(=O)c2cc(S(=O)(=O)N3CCOCC3)ccc2C)cc1 | inconclusive: 8.2 µM [inhibitor, partial curve] and inconclusive: 5.17 µM [inhibitor, partial curve] | 
32 | Cc1cnc(CNC(=O)c2ccc3nc([C@@H]4O[C@H](CO)[C@H](O)[C@H](O)[C@H]4O)[nH]c3c2)cn1 | inactive | 
33 | Cc1ccc(S(=O)(=O)CCC(=O)NCCN2C(=O)S/C(=C/c3ccc(F)cc3)C2=O)cc1 | active: 18.4 µM | 
34 | COc1ccc(-n2c(=S)[nH]c3cc(C(=O)Nc4ccc(F)cc4)ccc3c2=O)c(OC)c1 | inconclusive: 23.1 µM [inhibitor, partial curve] | 
35 | Cc1ccc(C(=O)N/C(=C\c2cccs2)C(=O)NCCc2c[nH]c3ccccc23)cc1 | inconclusive: 29.1 µM [inhibitor, single point] | 
36 | Oc1ccc2ccccc2c1CNc1ccc(Br)cc1 | inconclusive: 23.1 µM [inhibitor, single point] | 
37 | CCC1CCCCN1CCN1C(=O)C2C(C(=O)Nc3ccc(OC)cc3)C3C=CC2(O3)C1C(=O)NC1CCCCC1 (configuration not stated) | inactive | 
38 | CC(C)Nc1ccc(Nc2ccnc3cc4ccccc4cc23)cc1 | active: 7.31 µM | 
39 | Cc1cc(N2CCN(c3ccccc3)CC2)n2cnnc2n1 | inconclusive: 23.1 µM [inhibitor, single point] | 
40 | CCN1CCC(O)(C#Cc2ccccc2)CC1 | inactive | 
41 | CCc1nnc(NC(=O)CSc2nnc(-c3ccccc3NC(=O)c3ccccc3)o2)s1 | inactive | 
42 | CCN(CC)CCn1c2c(c(SCC(=O)Nc3cccc4ccccc34)nc1=O)CCCC2 | inconclusive: 18.4 µM [inhibitor, single point] | 
43 | COc1ccc(S(=O)(=O)NCC2CCCN(C(=O)c3sccc3C)C2)cc1 (configuration not stated) | inactive | 
44 | Cc1cccc(C)c1C(=NCCCN(C)C)c1ccccc1 | inactive | 
45 | c1nc(CCO[C@H]2CCCCO2)cc2cc3c(cc12)OCO3 | inconclusive: 16.4 µM [inhibitor, single point] | 
46 | COc1cc(/C=C/C(=O)OCC(=O)Nc2ccc(C)c(S(=O)(=O)N3CCCCC3)c2)ccc1O | active: 25.9 µM | 
47 | NC(c1csc(NC(=O)c2cccc(OC(F)(F)F)c2)n1)c1ccccc1Cl (configuration not stated) | active: 5.8 µM | 
48 | O=C(Nc1nc(-c2ccc3c(c2)OCO3)cs1)C1CC1 | active: 2.31 µM | 

Row | Structure (SMILES) | Potency | activity change, negative = growth inhibition
49 | COc1ccc(Nc2nc3ccccc3n3nnnc23)cc1 | inconclusive: 11.6 µM [inhibitor, partial curve] | 
50 | CN(CC(=O)Nc1cccc(F)c1)CC(=O)Nc1cccc(S(N)(=O)=O)c1 | inactive | 
51 | Cc1cc(C)c2c(c1)cc(C)c1nnc(SCC(=O)Nc3ccccc3N3CCOCC3)n12 | inconclusive: 14.6 µM [inhibitor, partial curve] | 
52 | O=C(CSc1nnc(NC(=O)c2c(F)cccc2F)s1)NC1CC1 | inactive | 
53 | CCN1CCN(C(=O)c2ccc3c(c2)N(Cc2ccccc2)C(=O)c2ccccc2S3(=O)=O)CC1 | inactive | 
54 | Cc1ccc(C)c(N2CCN(CC(=O)Nc3ccc4[nH]c(=O)[nH]c4c3)CC2)c1 |  | inconclusive: -34.6% [inhibitor]
55 | COc1ccccc1CCNC(=O)COc1cccc2c1OC(C)(C)C2 | active: 23.1 µM | 
56 | COc1ccc(/C(N)=N/OC(=O)c2ccco2)cc1 | inconclusive: 29.1 µM [inhibitor, single point] | 
57 | Cc1nc(-c2ccc(F)cc2)sc1CCNC(=O)c1ccc(OC(C)C)cc1 | inconclusive: 18.4 µM [inhibitor, single point] | 
58 | CCN(CC)c1ccc(-c2nnc(SCC(=O)Nc3ccccc3C#N)n2-c2ccccc2)cc1 | active: 18.4 µM | 
59 | Cc1ccccc1CC1(CO)CCCN(C(=O)c2cc(-c3ccccc3)no2)C1 (configuration not stated) | active: 29.1 µM | 
60 | CCC1CCc2sc(C(=O)N(C)CC(=O)Nc3cccc(OC)c3)cc2C1 (configuration not stated) | inconclusive: 18.4 µM [inhibitor, single point] | 
61 | Cc1noc(NC(=O)c2c(-c3c(Cl)cccc3Cl)noc2C)c1[N+](=O)[O-] | inconclusive: 20.6 µM [inhibitor, single point] | 
62 | Cc1cc(C)cc(OCC(=O)N(Cc2ccc(Cl)cc2)C2CCS(=O)(=O)C2)c1 (configuration not stated) | inconclusive: 29.1 µM [inhibitor, single point] | 
63 | CCN(CC)C(=O)c1ccc(-c2cccs2)s1 | inconclusive: 16.4 µM [inhibitor, single point] | 
64 | COc1ccccc1CNC(=O)C1CCN(C2=NS(=O)(=O)C(c3ccc(C)c(C)c3)=C2C)CC1 | active: 18.4 µM | 
65 | Brc1cccc(OCCCN2CCCCCC2)c1 | inconclusive: 14.6 µM [inhibitor, partial curve] | 
66 | CS(=O)(=O)OCCCNCCCOS(C)(=O)=O | inactive | 
67 | C[C@H]1CN([C@@H](C)CO)S(=O)(=O)c2ccc(Br)cc2O[C@H]1CN(C)C(=O)Cc1ccccn1 | inactive | 
68 | Cc1ccc(C)c(N2CCN(c3nc4ccccc4c(=O)n3Cc3ccccc3)CC2)c1 | inactive | 
69 | O=C(CSc1nnc(CNC(=O)c2ccco2)o1)c1ccc(Cl)cc1 | inconclusive: 9.2 µM [inhibitor, partial curve] | 
70 | NS(=O)(=O)c1ccc(CNC(=O)c2cnccn2)cc1 | inconclusive: 23.1 µM [inhibitor, single point] | 
71 | COc1ccc(C(=O)N2CCC3(CC2)CCN(c2ccncc2)CC3)cc1 | inconclusive: 16.4 µM [inhibitor, single point] | 
72 | Cc1cc(=O)oc2cc(OC(C)C(=O)NC3(C#N)CCCCC3)ccc12 (configuration not stated) | inactive | 
